From PubChem BioAssay AID504339 (National Center for Advancing Translational Sciences (NCATS), 2011)
Among all 390,000 compounds or so, about 17,000 (4.4%) were called active. Inconclusive results, whose numbers are uncertain, are shown with a selection of clear calls. The call rests on the fitted dose curve; in most records, active means well fitted inhibition curve with a large enough effect; inconclusive means small, poorly fitted or top-dose-only effect; inactive means no such curve, though single readings can be large or run the other way. Potencies of inconclusive entries are doubtful fits and often do not repeat.

The molecules below were run against Lysine-specific demethylase 4A (Homo sapiens) (UniProt O75164) (assay: qHTS Assay for Inhibitors of JMJD2A-Tudor Domain). Conditions: AlphaScreen JMJD2A-Tudor / H3K4me3 peptide binding; series mostly up to 114 µM.
Further: nearly all actives have a fitted effect of over 50% in size.
Potency means the concentration at half of the fitted maximal effect; tags describe the fitted curve by direction and shape.

Chain of UniProt O75164 (O75164 whole entry, looked up, the tested form may be a part): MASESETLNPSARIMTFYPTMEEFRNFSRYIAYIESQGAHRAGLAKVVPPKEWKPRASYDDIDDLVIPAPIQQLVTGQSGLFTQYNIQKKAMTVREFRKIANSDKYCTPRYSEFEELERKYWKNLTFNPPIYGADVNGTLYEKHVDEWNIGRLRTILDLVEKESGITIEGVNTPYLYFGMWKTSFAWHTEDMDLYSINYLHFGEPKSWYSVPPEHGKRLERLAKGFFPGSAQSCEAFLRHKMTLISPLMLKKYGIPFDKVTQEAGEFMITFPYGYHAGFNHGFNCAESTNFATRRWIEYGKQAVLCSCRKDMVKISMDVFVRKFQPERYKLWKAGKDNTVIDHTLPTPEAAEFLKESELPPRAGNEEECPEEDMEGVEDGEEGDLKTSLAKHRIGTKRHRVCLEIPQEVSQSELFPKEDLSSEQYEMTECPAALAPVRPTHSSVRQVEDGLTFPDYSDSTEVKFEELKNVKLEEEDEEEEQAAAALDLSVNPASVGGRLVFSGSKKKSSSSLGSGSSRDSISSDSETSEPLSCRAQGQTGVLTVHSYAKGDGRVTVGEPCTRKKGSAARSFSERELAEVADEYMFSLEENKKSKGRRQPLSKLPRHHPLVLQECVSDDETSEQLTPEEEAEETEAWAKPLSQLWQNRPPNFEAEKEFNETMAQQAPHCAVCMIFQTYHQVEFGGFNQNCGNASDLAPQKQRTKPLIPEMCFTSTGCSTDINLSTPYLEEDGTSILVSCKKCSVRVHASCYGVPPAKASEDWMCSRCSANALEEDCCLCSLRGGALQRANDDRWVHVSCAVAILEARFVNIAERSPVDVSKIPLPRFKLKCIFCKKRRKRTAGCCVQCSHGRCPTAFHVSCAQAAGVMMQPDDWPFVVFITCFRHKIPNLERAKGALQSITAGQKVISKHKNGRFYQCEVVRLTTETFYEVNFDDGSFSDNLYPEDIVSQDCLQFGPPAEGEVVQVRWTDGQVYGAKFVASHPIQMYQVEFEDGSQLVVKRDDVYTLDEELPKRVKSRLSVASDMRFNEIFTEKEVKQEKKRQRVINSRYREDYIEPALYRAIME

SMILES | Potency
CC1=C(C(=O)Nc2ccccc2)C(c2ccc[nH]2)n2ncnc2N1 (stereo not drawn) | active: 22.4 µM
CC(O)CNCCNCc1cccs1 (stereo not drawn) | inconclusive: 3.16 µM [inhibitor, full curve, poor fit]
COc1ccc(C(=O)NCc2nnc(SCC(=O)c3ccccc3)o2)cc1 | inactive
Cc1ccc(NS(=O)(=O)c2cc3c(cc2N(C)C)NC(=O)CC3)cc1C | inconclusive: 35.5 µM [inhibitor, single point]
CCCCOc1ccc(C(=O)O)cc1 | inactive
CCN(CC)S(=O)(=O)c1ccc2nc(SC)sc2c1 | inconclusive: 89.1 µM [inhibitor, single point]
CCC1CCC(N2CCN(c3ccc([N+](=O)[O-])cc3)CC2)CC1 (stereo not drawn) | inconclusive: 50.1 µM [inhibitor, partial curve]
O=Cc1c(-c2ccc(Cl)cc2)oc2ccc(O)cc12 | inconclusive: 17.8 µM [inhibitor, full curve]
O=S(=O)(Nc1ccc2c(c1)OCO2)c1ccc(Br)s1 | inconclusive: 28.2 µM [inhibitor, partial curve]
O=C(NCCCc1nc2ccccc2n1Cc1cccc(Cl)c1)C1CCCCC1 | inactive
O=C(Cn1ncn2c(cc3ccccc32)c1=O)NCc1ccco1 | inconclusive: 56.2 µM [inhibitor, partial curve]
Cc1cc(C(=O)Nc2ccc(N3CCCCC3)cc2)no1 | inconclusive: 79.4 µM [inhibitor, single point]
COc1ccc(-c2c(-c3ccc(OCC(=O)NN)cc3O)n[nH]c2C(F)(F)F)cc1 | inconclusive: 79.4 µM [inhibitor, single point]
O=C(NN1C(=O)/C(=C/c2ccc(O)c(O)c2)SC1=S)c1ccccc1 | active: 12.6 µM
Cc1n[nH]c(C)c1N=Nc1ccc(Br)cc1 | inconclusive: 35.5 µM [inhibitor, full curve]
O=[N+]([O-])c1cc(S(=O)(=O)c2ccc(N3CCCCC3)c([N+](=O)[O-])c2)ccc1N1CCCCC1 | inconclusive: 3.16 µM [inhibitor, full curve, poor fit]
O=[N+]([O-])c1ccc(Nc2cccc3c2[nH]c2c(-c4ccccc4)nccc23)c([N+](=O)[O-])c1 | inconclusive: 10 µM [inhibitor, full curve]
CSc1nc(=S)c2[nH]c(=S)[nH]c2[nH]1 | active: 25.1 µM
COc1ccc(CNC(=O)CN(C(=O)CCC(=O)Nc2ccccn2)c2ccc(C)cc2)cc1 | active: 56.2 µM
Cc1cccc(Nc2ccccc2C(=O)OCC(=O)NCc2ccco2)c1C | active: 44.7 µM
NC(=O)CCCSc1nc2ccccc2[nH]1 | inactive
Oc1ccc(Cl)cc1CNc1nccs1 | inconclusive: 39.8 µM [inhibitor, single point]
CCN(CC(=O)Nc1ccc(NC(C)=O)cc1)C(=O)c1ccc(N2CCC(C)CC2)c([N+](=O)[O-])c1 | inconclusive: 44.7 µM [inhibitor, partial curve]
Cc1ccc2c(c1)C1CN(C)CCC1N2C(=S)Nc1ccc(OC(F)F)cc1 (stereo not drawn) | inactive
O=C(CSc1nc(-c2ccc(F)cc2)cc(C(F)(F)F)n1)NCc1cccs1 | inactive

SMILES | Potency
S=c1c2[nH]cnc2ncn1CCSc1ncnc2nc[nH]c12 | active: 12.6 µM
COc1cccc([C@@H]2Oc3ccc(OC)cc3C(=O)[C@H]2O)c1 | inactive
COc1ccc(OC)c(Nc2nc(-c3sc(C)nc3C)cs2)c1 | active: 39.8 µM
O=C(NCCCn1ccnc1)c1nc(Cn2cc([N+](=O)[O-])cn2)no1 | inconclusive: 17.8 µM [inhibitor, partial curve]
COc1ccc(-c2nc(CCl)cs2)cc1OC | inconclusive: 89.1 µM [inhibitor, partial curve]
CC(=O)Nc1ccc(C(=O)Nc2nc(-c3ccccn3)cs2)cc1 | active: 56.2 µM
COc1cc2c(cc1NC(=O)C(C)OC(=O)C1CC(=O)N(Cc3ccco3)C1)oc1ccccc12 (stereo not drawn) | inconclusive: 56.2 µM [inhibitor, partial curve, poor fit]
Cc1cc(NC(=O)C(C)SCC(=O)OCc2ccc(Cl)cc2Cl)no1 (stereo not drawn) | inactive
COCCNC(=O)CSc1nc(-c2ccccc2)[nH]c1-c1ccc(C)cc1 | inactive
CCc1ccc(-n2c(=S)sc3c(=O)n(-c4ccccc4OC)c(=S)[nH]c32)cc1 | inconclusive: 44.7 µM [inhibitor, partial curve]
Cc1cc(OC(C)C(=O)NCc2ccccn2)c2c(C)cc(=O)oc2c1 (stereo not drawn) | inconclusive: 17.8 µM [inhibitor, single point]
Cc1cc2oc3c(c(=O)c2cc1C)C(c1ccc(C(C)C)cc1)N(c1nc(C)c(C)s1)C3=O (stereo not drawn) | inactive
O=C(NC(Cc1c[nH]c2ccccc12)C(=O)Nc1ccc(F)c([N+](=O)[O-])c1)c1cccs1 (stereo not drawn) | inconclusive: 25.1 µM [inhibitor, single point]
C/C(=N/NC(=O)c1sc(=S)n(C)c1C)c1ccccc1 | inactive
C/C(=N\NC(=S)NCc1ccccc1)c1ccc(C(C)(C)C)cc1 | inconclusive: 56.2 µM [inhibitor, partial curve]
N=c1ccn(Cc2ccc(Cl)c(Cl)c2)cc1 | inconclusive: 89.1 µM [inhibitor, single point]
CCCCC(CC(C)O)c1n[nH]c(=S)n1-c1ccccc1 (stereo not drawn) | active: 28.2 µM
O=C1c2cccnc2C(Nc2ccccc2)N1Cc1ccco1 (stereo not drawn) | active: 31.6 µM
Cc1c(Cl)cccc1-n1nc(C)c2c(C)cc(=O)n(CC(=O)N3CCCc4ccccc43)c21 | inactive
CCNc1nc2c(c(=O)n(C)c(=O)n2C)n1CCCc1ccccc1 | inconclusive: 12.6 µM [inhibitor, partial curve, poor fit]
CCOc1ccc(Sc2cc(C(=O)NCc3ccccc3Cl)c3ccccc3n2)cc1 | inactive
Cc1ccc(CN(C)C(=O)C2CCC(=O)N(C3CCCCCC3)C2)cc1 (stereo not drawn) | inactive
COc1ccccc1NCC(=O)N/N=C/C=C/c1ccccc1 | inconclusive: 35.5 µM [inhibitor, partial curve]
C/C(=N\N=C(/N)SC1CC(=O)N(c2ccccc2)C1=O)c1cccs1 (stereo not drawn) | inconclusive: 56.2 µM [inhibitor, partial curve]
CCOc1ccc(CC2c3cc(OCC)c(OCC)cc3CCN2C(=O)CN2CCN(C)CC2)cc1OCC (stereo not drawn) | inconclusive: 35.5 µM [inhibitor, partial curve]

SMILES | Potency
Cc1c(NC(=O)c2ccc3c(c2)OCO3)c(=O)n(-c2ccccc2)n1C | inactive
CCN(CC)c1ccc(/C=N/NC(=O)Cc2cccs2)cc1 | inconclusive: 39.8 µM [inhibitor, partial curve]
Cc1cc(Br)ccc1NC(=O)c1c(C)oc2ncnc(N3CCCCC3)c12 | inactive
CCc1c(C)nc2ncnn2c1N1CCC(C(=O)NCc2cccs2)CC1 | inactive
O=C(c1ccc(-c2ccc([N+](=O)[O-])cc2)o1)N1CCCCCCC1 | active: 56.2 µM
O=C1/C(=C/c2ccccc2Cl)SC(=S)N1CCCC(=O)N(CCO)c1ccccc1 | active: 8.91 µM
Oc1ccc(C[C@H]2CNC(=S)N2CC2CCCN2C[C@H](Cc2ccc(O)cc2)N2C[C@H](Cc3ccccc3)N(CC3CCCCCC3)C2=S)cc1 (stereo partly drawn) | inconclusive: 4.47 µM [inhibitor, full curve, poor fit]
O=C(NC1CCCCC1)c1nc2c(nnn2Cc2ccccc2Cl)c(=O)[nH]1 | inactive
CC1CCN(c2nc3c(c(=O)[nH]c(=O)n3C)n2CCCc2ccccc2)CC1 | inconclusive: 100 µM [inhibitor, single point]
O=C(Nc1cc(Cl)ccc1Cl)c1cc(S(=O)(=O)N2CCc3ccccc3C2)ccc1F | inactive
COc1ccc(-c2csc(Nc3cc(C)ccn3)n2)cc1OC | inconclusive: 39.8 µM [inhibitor, partial curve]
O=C(c1ccc2nc(-c3ccco3)c(-c3ccco3)nc2c1)N1CCN(c2ccccc2)CC1 | inconclusive: 31.6 µM [inhibitor, partial curve]
CC(=O)NC1CCC(=O)C=C1c1ccccc1 (stereo not drawn) | inactive
COc1ccccc1N1CCN(c2csc3ccccc3c2=O)CC1 | inconclusive: 44.7 µM [inhibitor, partial curve]
CC(=O)Nc1nc2ccccc2n1CCN(C)C | active: 39.8 µM
Fc1ccc2cnc(-c3ccccc3)c(-c3cc(C(F)(F)F)cc(C(F)(F)F)c3)c2c1 | inconclusive: 70.8 µM [inhibitor, single point]
O=S(=O)(c1ccc(SCCOc2ccccc2Cl)nc1)N1CCCC1 | inactive
CCOC(=O)C1C(c2ccc(O)c(O)c2)NC(=S)NC1(O)C(F)(F)F (stereo not drawn) | inconclusive: 14.1 µM [inhibitor, partial curve]
Cc1ccccc1OCCn1cc(/C(N)=N/O)c2ccccc21 | inconclusive: 63.1 µM [inhibitor, partial curve]
O=C(N/N=C/c1ccc(Br)cc1)c1ccccc1-n1cccc1 | inconclusive: 56.2 µM [inhibitor, partial curve]
COc1ccc(N2CCN(C(c3ccc4ncccc4c3)c3nnnn3C(C)C)CC2)cc1 (stereo not drawn) | inconclusive: 15.8 µM [inhibitor, full curve]
CCCCn1c(SCC(=O)NC(=O)NCc2ccco2)nc2cc(S(N)(=O)=O)ccc21 | inconclusive: 56.2 µM [inhibitor, partial curve]
Cc1cccc(N2CCN(C(=O)c3csc4ccccc34)CC2C)c1 (stereo not drawn) | inconclusive: 35.5 µM [inhibitor, single point]
